# Experimental data published in PubChem BioAssay AID504333 (National Center for Advancing Translational Sciences (NCATS), 2011).
# Where “and” joins values, the source holds several entries; their conditions need not be identical. Equal entries are not always repeated. Hit rate of the full screen: of about 360,000 compounds, about 16,000 (4.4%) were called active. This list was built around the results that the source calls inconclusive (neither active nor inactive); the mix of calls is not that of the screen. Calls follow the shape of the dose curve; as a rule, active = well fitted inhibition curve with a large enough effect; inconclusive = small, poorly fitted or top-dose-only effect; inactive = no such curve, though single readings can be large or run the other way. Potencies of inconclusive entries are doubtful fits and often do not repeat.
# Target: Bromodomain adjacent to zinc finger domain protein 2B (Homo sapiens) (UniProt Q9UIF8)
# Sequence of UniProt Q9UIF8 (Q9UIF8 whole entry, looked up, the tested form may be a part): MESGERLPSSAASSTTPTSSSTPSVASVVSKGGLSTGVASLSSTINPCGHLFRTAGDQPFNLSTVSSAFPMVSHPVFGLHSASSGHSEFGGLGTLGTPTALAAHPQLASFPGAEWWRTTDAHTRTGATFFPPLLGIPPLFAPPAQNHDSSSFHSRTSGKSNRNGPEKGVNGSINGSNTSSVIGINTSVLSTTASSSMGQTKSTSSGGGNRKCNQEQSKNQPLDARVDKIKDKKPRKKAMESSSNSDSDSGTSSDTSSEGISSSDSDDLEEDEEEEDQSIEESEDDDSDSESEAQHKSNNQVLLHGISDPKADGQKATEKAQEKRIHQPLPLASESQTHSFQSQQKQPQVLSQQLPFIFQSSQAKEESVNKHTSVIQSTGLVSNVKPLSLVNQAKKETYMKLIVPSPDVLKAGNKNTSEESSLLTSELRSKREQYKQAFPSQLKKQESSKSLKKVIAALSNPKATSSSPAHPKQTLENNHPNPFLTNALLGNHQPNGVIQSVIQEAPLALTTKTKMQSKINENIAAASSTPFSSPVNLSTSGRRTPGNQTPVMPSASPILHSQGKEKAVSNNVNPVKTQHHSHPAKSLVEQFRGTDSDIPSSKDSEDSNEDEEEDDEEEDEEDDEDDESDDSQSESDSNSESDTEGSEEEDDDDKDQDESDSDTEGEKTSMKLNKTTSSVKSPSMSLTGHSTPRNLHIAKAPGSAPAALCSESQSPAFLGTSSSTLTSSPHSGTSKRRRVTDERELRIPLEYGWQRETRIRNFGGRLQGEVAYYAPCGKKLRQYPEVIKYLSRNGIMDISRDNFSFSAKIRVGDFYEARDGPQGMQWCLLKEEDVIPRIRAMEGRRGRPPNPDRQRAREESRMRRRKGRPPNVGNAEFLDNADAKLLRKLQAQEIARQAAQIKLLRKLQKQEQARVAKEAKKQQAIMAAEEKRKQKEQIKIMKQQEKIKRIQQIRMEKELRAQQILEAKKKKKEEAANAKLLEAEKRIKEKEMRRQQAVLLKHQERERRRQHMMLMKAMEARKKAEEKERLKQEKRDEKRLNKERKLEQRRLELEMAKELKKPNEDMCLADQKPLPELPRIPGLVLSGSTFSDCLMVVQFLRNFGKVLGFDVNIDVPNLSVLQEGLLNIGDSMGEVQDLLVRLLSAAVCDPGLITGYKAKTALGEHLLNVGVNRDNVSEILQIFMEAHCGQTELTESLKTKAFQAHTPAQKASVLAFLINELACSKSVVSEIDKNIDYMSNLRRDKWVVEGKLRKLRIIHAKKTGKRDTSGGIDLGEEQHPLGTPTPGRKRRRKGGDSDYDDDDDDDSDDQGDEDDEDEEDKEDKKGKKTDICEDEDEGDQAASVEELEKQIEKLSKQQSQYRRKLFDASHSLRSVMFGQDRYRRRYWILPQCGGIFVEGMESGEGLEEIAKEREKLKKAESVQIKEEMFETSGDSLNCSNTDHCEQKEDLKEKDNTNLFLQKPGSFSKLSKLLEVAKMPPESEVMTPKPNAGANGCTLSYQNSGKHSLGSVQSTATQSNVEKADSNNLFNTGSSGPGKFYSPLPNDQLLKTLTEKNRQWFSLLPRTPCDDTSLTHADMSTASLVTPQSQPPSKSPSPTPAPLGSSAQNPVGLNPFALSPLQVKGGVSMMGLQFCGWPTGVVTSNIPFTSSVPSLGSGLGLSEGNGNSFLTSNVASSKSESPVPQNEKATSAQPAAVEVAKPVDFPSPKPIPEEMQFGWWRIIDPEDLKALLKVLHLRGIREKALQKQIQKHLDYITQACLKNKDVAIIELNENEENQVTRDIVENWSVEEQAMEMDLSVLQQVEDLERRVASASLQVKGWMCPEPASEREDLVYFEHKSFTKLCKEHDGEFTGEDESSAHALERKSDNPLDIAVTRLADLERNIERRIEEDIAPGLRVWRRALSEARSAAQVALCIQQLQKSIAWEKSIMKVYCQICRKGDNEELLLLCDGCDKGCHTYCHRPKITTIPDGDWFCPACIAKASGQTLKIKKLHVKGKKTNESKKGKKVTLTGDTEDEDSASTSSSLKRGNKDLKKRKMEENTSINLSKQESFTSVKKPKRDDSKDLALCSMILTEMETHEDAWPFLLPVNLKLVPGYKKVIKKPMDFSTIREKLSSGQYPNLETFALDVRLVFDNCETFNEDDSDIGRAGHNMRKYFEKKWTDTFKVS
# Experiment: qHTS Assay for Inhibitors of BAZ2B; also: nearly all actives have a fitted effect of over 60% in size
# Conditions: AlphaScreen BAZ2B-H3K14Ac peptide displacement; series mostly up to 114 µM
# Outline: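 Complex of BAZ2B and biotin-H3K14Ac (50 nM apiece) forms over 30 min at RT, then faces library compounds up to 110 uM for another 30 min; AlphaScreen beads added, 20 min dark incubation, luminescence read.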
# Potency is read from the fitted curve at half-maximal effect; tags tell the direction and shape of the fitted curve.
row,SMILES,Potency
1,CC(C)CNC(=O)c1cccc(NC(=O)C(C)Oc2ccccc2)c1 (centres undefined),inactive
2,Cc1cc2c(cc(C(=O)O)n2C)s1,inactive
3,CCn1c(=O)c2sccc2n2c(CCC(=O)N3CCN(c4ccc(C(C)=O)cc4)CC3)nnc12,inactive
4,O=C(N/N=C/c1cc(Br)c(O)c(Br)c1O)c1ccc2c(c1)OCCO2,active: 44.7 µM
5,CN1C(=O)/C(=C\C(=O)c2cccs2)c2ccccc21,active: 20 µM
6,Cc1cc(C)n2nc(NCc3ccccc3)nc2n1,"inconclusive: 89.1 µM [inhibitor, single point]"
7,Cc1ccc(-n2ncc(C(=O)NCCc3c[nH]c4ccccc34)c2C2CCN(C(=O)OC(C)(C)C)CC2)cc1C,inactive
8,COc1ccc(NC(=O)C(Cc2ccccc2)n2cccc2)cc1OC (centres undefined),"inconclusive: 56.2 µM [inhibitor, partial curve] and inconclusive: 35.5 µM [inhibitor, partial curve]"
9,COc1cc(-c2noc(CCC(=O)Nc3cc(C)ccc3C)n2)cc(OC)c1OC,inactive
10,COc1ccc(CCNC(C)=O)cc1,"inconclusive: 89.1 µM [inhibitor, single point]"
11,Cc1nn(C(=O)CCC(=O)NCCc2ccccc2)c2ccccc12,inactive
12,O=C(CCN1CCc2ccccc21)c1ccc2c(c1)OCCO2,active: 50.1 µM
13,CCCC1CCc2c(sc(N)c2C(N)=O)C1 (centres undefined),"inconclusive: 70.8 µM [inhibitor, single point]"
14,CCOC(=O)Cc1cc(=O)n2[nH]c(C)c(-c3ccccc3)c2n1,inactive
15,O=C(CNC(=O)c1ccccc1Cl)N/N=C/c1ccc2c(c1)OCO2,inactive
16,O=c1nc(N/N=C/C=C/c2ccccc2)cn[nH]1,"inconclusive: 89.1 µM [inhibitor, single point]"
17,CCCc1nnc2c(N(C)S(=O)(=O)c3ccccc3)nc3ccccc3n12,inactive
18,O=C1N=C(N2CCN(c3ccccc3)CC2)S/C1=C\c1cn[nH]c1-c1ccccc1,inactive
19,CC(=O)c1cccc(OCC(O)CNCC2CCCCC2)c1 (centres undefined),active: 56.2 µM
20,CCN(CC)C(=O)CSC(=Nc1ccccc1F)NC#N,inactive
21,Cc1c(/C=N/Nc2ccc(C(=O)O)cc2)c2ccccc2n1C,"inconclusive: 50.1 µM [inhibitor, partial curve]"
22,COc1ccc(S(=O)(=O)N2CCN(Cc3cc(OC)c(OC)c(OC)c3)CC2)cc1,"inconclusive: 79.4 µM [inhibitor, single point]"
23,CC1(C)CC(=O)C(C=Nc2ccccc2C(=O)O)=C(O)C1,inactive
24,O=C1/C(=C/c2ccccc2Cl)SC(=S)N1CCC(=O)N1CCCCC1CCO (centres undefined),"inconclusive: 12.6 µM [inhibitor, partial curve]"
25,Cc1ccn2c(-c3n[nH]c(=S)n3C)c(C)nc2c1,inactive

row,SMILES,Potency
1,CN(Cc1cn(C)nc1-c1cccc(Cl)c1)Cc1nccn1C,"inconclusive: 79.4 µM [inhibitor, single point]"
2,COc1cccc(OCC(O)CN2CCC(CN3C(=O)c4cccc5cccc(c45)C3=O)CC2)c1 (centres undefined),"inconclusive: 44.7 µM [inhibitor, partial curve]"
3,COc1cc(CNCc2cccc3ccccc23)cc(OC)c1,active: 50.1 µM
4,Cn1c(=O)n(C)c2cc([N+](=O)[O-])c(N3CCN(C(=O)c4cccc(F)c4)CC3)cc21,active: 50.1 µM
5,O=C(N/N=C/c1c(O)ccc2ccccc12)c1cccnc1,inactive
6,CCN1CCn2c3c(c4cccc(C)c42)CCCC31 (centres undefined),"inconclusive: 50.1 µM [inhibitor, partial curve]"
7,CCn1cc(C(=O)NCC2COc3ccccc3O2)c2cc(OC)c(OC)cc2c1=O (centres undefined),"inconclusive: 70.8 µM [inhibitor, single point]"
8,COc1cc(/C=C2\C(=O)ON=C2c2ccccc2)cc(OC)c1OC,"inconclusive: 79.4 µM [inhibitor, partial curve]"
9,C#CCOCCOCCOCCNc1nc(N2CCN(C(=O)[C@H](CCC(=O)O)n3cc(C(N)CC(C)C)nn3)CC2)nc(N2CCN(C(=O)[C@H](CCC(=O)O)n3cc(C(N)CC(C)C)nn3)CC2)n1 (some centres undefined),active: 79.4 µM
10,O=C1CC(=O)NC(SCC(=O)Nc2ccccc2[N+](=O)[O-])=N1,active: 39.8 µM
11,COc1ccc(CN(C)CC(=O)Nc2sc3c(c2C#N)CCC3)cc1OC,"inconclusive: 50.1 µM [inhibitor, partial curve]"
12,O=C(CSc1n[nH]c(-c2ccccc2)n1)NCc1cccc(C(=O)O)c1,inactive
13,COc1ccccc1CNC(=O)CC(NS(=O)(=O)c1ccc(C)cc1)c1ccco1 (centres undefined),inactive
14,CC1=C/C(=C\c2ccc(Br)o2)C(=O)O1,active: 31.6 µM
15,CN(N=Nc1ccc([N+](=O)[O-])cc1)c1ccccc1,"inconclusive: 7.08 µM [inhibitor, full curve]"
16,O=C1C2C(C(=O)N1/N=C/c1cccc([N+](=O)[O-])c1)C1C=CC2C12CC2 (centres undefined),inactive
17,O=C(Nc1nc2ccc(F)cc2s1)C1CCN(S(=O)(=O)c2cc([N+](=O)[O-])ccc2Cl)CC1,"inconclusive: 50.1 µM [inhibitor, partial curve]"
18,c1ccc(-n2cnc3cc(NCc4ccco4)ccc32)cc1,"inconclusive: 50.1 µM [inhibitor, partial curve]"
19,COc1cc(NC(=O)c2noc3c2CCc2ccccc2-3)cc(OC)c1OC,inactive
20,O=C(Oc1ccc(-c2cn3c(n2)SCC3)cc1)c1ccccc1,"inconclusive: 70.8 µM [inhibitor, single point]"
21,COc1ccc(CCNC(=O)NCc2noc3ccccc23)c(OC)c1,inactive
22,CN(C)c1ccc(C(CNS(=O)(=O)c2ccc(Cl)cc2)N2CCCC2)cc1 (centres undefined),active: 31.6 µM
23,COc1cccc(C(C#N)N2N=C(C)CC2(C)C)c1O (centres undefined),"inconclusive: 89.1 µM [inhibitor, single point]"
24,Cc1cc2c(ncn2Cc2ccccc2)c([N+](=O)[O-])c1C,"inconclusive: 14.1 µM [inhibitor, partial curve, poor fit]"
25,CCN(CC)S(=O)(=O)c1ccc(N2CCOCC2)c(NC(=O)CNCCc2ccccc2)c1,active: 50.1 µM

row,SMILES,Potency
1,O=C(c1ccccc1)N1CCn2c1nc1ccccc12,inactive
2,CCCn1c(CCC(=O)O)ccc1-c1ccc(F)cc1,"inconclusive: 89.1 µM [inhibitor, single point]"
3,Cc1ccc(S(=O)(=O)n2nc(OC(=O)c3cccs3)cc2N)cc1,"inconclusive: 89.1 µM [inhibitor, single point]"
4,O=C(Nc1ccc(Cl)cc1)C1CCN(c2nc3ccccc3n3cccc23)CC1,"inconclusive: 79.4 µM [inhibitor, single point]"
5,Cc1ccc(NCC(=O)N/N=C/c2ccc(-c3cccc(C(F)(F)F)c3)o2)cc1,"inconclusive: 31.6 µM [inhibitor, full curve]"
6,Cc1ccc(-c2cc3ncc(C(=O)c4cc([N+](=O)[O-])ccc4O)cn3n2)cc1,"inconclusive: 89.1 µM [inhibitor, single point]"
7,CC(Sc1ccc2c(c1)OCCO2)C(=O)Nc1ncc(Cl)cc1Cl (centres undefined),"inconclusive: 89.1 µM [inhibitor, single point]"
8,Cc1ccc(NC(=O)Nc2cccnc2)cc1NC(=O)Nc1cccnc1,inactive
9,Cc1cc([N+](=O)[O-])cc(C)c1OCC(=O)N/N=C/c1ccc(OC(=O)c2ccccc2)cc1,"inconclusive: 39.8 µM [inhibitor, partial curve]"
10,O=C(CCC(=O)OCc1ccc(Cl)cc1)Nc1cccc([N+](=O)[O-])c1,"inconclusive: 79.4 µM [inhibitor, single point]"
11,CCCCN(C)CCNC(=O)c1cc(-c2cccnc2)nc2ccc(S(=O)(=O)N3CCC(C)CC3)cc12,inactive
12,Nc1ccccc1Nc1cc(-c2cccc(Cl)c2)nn1-c1ccccc1,active: 22.4 µM
13,O=C(Nc1nnc(S(=O)(=O)N2CCCc3ccccc32)s1)c1ccccc1Br,inactive
14,Cc1cc(C(=O)N/N=C/c2cccc([N+](=O)[O-])c2)c(C)o1,inactive
15,CCOc1cccc(C2c3c(oc4ccccc4c3=O)C(=O)N2c2nc(C)c(C(=O)OC)s2)c1 (centres undefined),"inconclusive: 89.1 µM [inhibitor, single point]"
16,CC12CCC(C(=O)N(CC(O)CN3CCN(Cc4ccccc4)CC3)C1=O)C2(C)C (centres undefined),"inconclusive: 79.4 µM [inhibitor, single point]"
17,COc1ccc(OC)c(NC(=O)c2csnn2)c1,"inconclusive: 50.1 µM [inhibitor, partial curve]"
18,O=C(O)CCCCCn1c(SCC(=O)c2ccc(O)c(O)c2)nc2ccsc2c1=O,"inconclusive: 56.2 µM [inhibitor, partial curve]"
19,NC(=O)CSc1nc2c(c(=O)n1-c1ccccc1)C1(CCCCC1)Cc1ccccc1-2,"inconclusive: 44.7 µM [inhibitor, partial curve]"
20,CCOC(=O)N/N=C/c1ccc(N(CC)CC)cc1O,"inconclusive: 79.4 µM [inhibitor, single point]"
21,O=C(c1ccco1)N(Cc1ccc(Cl)cc1)Cc1ccco1,"inconclusive: 50.1 µM [inhibitor, partial curve]"
22,O=C(COC(=O)c1cn(-c2ccccc2)nc1-c1ccccc1)Nc1ncc(Cl)cc1Cl,"inconclusive: 56.2 µM [inhibitor, partial curve]"
23,O=C(NC1=C(Nc2ccc(Cl)cc2)C(=O)c2ccccc2C1=O)c1ccccc1,"inconclusive: 7.94 µM [inhibitor, full curve, poor fit]"
24,CCOc1cc(CNc2ccc(O)cc2)cc(Br)c1OCc1ccccc1,"inconclusive: 25.1 µM [inhibitor, partial curve]"
